The results in this text go back to PubChem BioAssay AID463173 (ICCB-Longwood Screening Facility, Harvard Medical School, 2010).

The campaign covered roughly 52,000 compounds. About 1,700 (3.3%) were called active. No stated cut-off is given here; in the data, active means survival mostly below about 52% (no sharp cut-off); inactive means mostly above about 56%. The list shows a part of the results.

This experiment has as its system Wild type. The experiment in a line: growth inhibition of S. aureus wild type versus tarO mutant, primary screen, teichoic acid synthesis inhibitors, RN4220, OD600 (AID 463173). To be noted: S. aureus RN4220 wild type/DeltatarO growth, OD600, 18 h, hits give low values, screened at 18.75 µg/mL (by protocol).
`CCCOc1cccc(C2c3c(-c4ccccc4O)n[nH]c3C(=O)N2Cc2ccco2)c1` (stereo not given): the survival was active: 11%.

On to `CCS(=O)(=O)N1CCc2cc(C(=O)Nc3cccc(C(C)=O)c3)ccc21`, for which the survival is inactive: 86%.

On to `CCCCN(CC)C(=O)CCNS(=O)(=O)c1ccc2c(c1)c(=O)n(C)c(=O)n2C`, for which the survival is inactive: 84%.

Consider `CC(C)CCNc1ncnc2c1nnn2Cc1ccccc1`, for which the survival is inactive: 111%.

Regarding `CCCNC(=O)Cn1c(=O)c2cccn2c2cccnc21`, the survival is inactive: 89%.

In the case of `CCCNC(=O)C1Cc2cc(S(=O)(=O)N3CCCCCC3)ccc2N1C(C)=O` (stereo not given), the survival was inactive: 71%.

For the compound `CCCn1cnc2cc(NCc3ccccc3OCC)ccc21`, the survival was inactive: 61%.

Consider `CCn1c(C(=O)NCc2ccccc2Br)cc2oc3ccccc3c21`, for which the survival was inactive: 36%.

As to `COC(=O)c1ccc(C(=O)OC)c(NC(=O)c2cc3nc(-c4ccc(C)cc4)cc(C(F)(F)F)n3n2)c1`, the survival was inactive: 68%.

With `COCCCNC(=O)c1sc2nc(C)c(C(=O)Nc3ccc(C)cc3C)c(-c3ccccc3Cl)c2c1N`, the survival is inactive: 74%.

On to `CCc1ccc2oc(-c3ccc(NC(=O)c4cc5ccccc5o4)cc3)nc2c1`, for which the survival was inactive: 76%.

For `CCCNC(=O)CCCN1C(=O)CCn2nc(-c3cccn3C)cc21`, the survival was inactive: 71%.

On to `O=C(O)CCCn1c(=O)oc2ccccc21`, for which the survival was inactive: 99%.

Turning to `CCc1cc(=O)oc2c(C)c3c(cc12)CN(CCc1ccccc1OC)CO3`, the survival was inactive: 85%.

In the case of `COc1ccc(C(=O)NCc2ccc3c(c2)CCN3C(=O)c2ccccc2)cc1`, the survival is inactive: 82%.

As to `O=C(CCSCc1cnn(-c2ccccc2)c1-n1cccc1)NCc1ccccc1Cl`, the survival is inactive: 77%.

For `Cc1cc(C)cc(Nc2cc(C(=O)NCCCN(C)C3CCCCC3)c3ccccc3n2)c1`, the survival was active: 26%.

As to `Cc1ccc(Cl)cc1N1CCN(C(=O)c2ccc(CS(=O)c3ccccc3)o2)CC1` (stereo not given), the survival is inactive: 134%.

For `COc1ccc(NS(=O)(=O)c2ccc(-c3cnc(C4CC4)o3)cc2)cc1Cl`, the survival was inactive: 146%.

As to `COCCNC(=O)c1nn(-c2ccc(C)cc2)c(=O)n(C)c1=O`, the survival is inactive: 83%.

Consider `Cc1ccc(C2C3=C(CCCC3=O)N(C)C3=C2C(=O)CCC3)cc1`, for which the survival is inactive: 113%.

Turning to `COc1ccc(C(CNC(=O)c2oc3cc(C)c(Cl)cc3c2C)N2CCCCC2)cc1` (stereo not given), the survival is inactive: 87%.

With `CC1CCN(S(=O)(=O)c2ccc3nc(NCc4ccccc4)ccc3c2)CC1`, the survival is inactive: 131%.

Consider `OC1COCc2nc3ccccc3n2C1` (stereo not given), for which the survival was inactive: 106%.

As for `COCCNC(=O)CCc1c(C)n(C)c2cc(-c3cc(OC)c(OC)c(OC)c3)nn2c1=O`, the survival was inactive: 19%.

With `COC(=O)c1scc(-c2ccc(C)cc2)c1S(=O)(=O)N1CCN(c2ccc(C)cc2C)CC1`, the survival was inactive: 87%.

As for `O=C(Cn1nc(-c2ccc(Cl)cc2)c2ccccc2c1=O)Nc1cccc(C(F)(F)F)c1`, the survival was inactive: 71%.

For the compound `Cn1c(=O)c(=O)n(C)c2cc(C(=O)NCc3ccccc3Cl)ccc21`, the survival was inactive: 74%.

Take `Cn1c(SCc2cc(=O)c3cc(Cl)ccc3[nH]2)nnc1-c1ccccc1`: the survival was inactive: 126%.

On to `O=C(Nc1sc2c(c1C(=O)c1ccccc1)CCCC2)c1ccco1`, for which the survival is inactive: 102%.

As for `COc1cccc(Nc2nc3ccccc3c3nncn23)c1`, the survival was inactive: 84%.

Turning to `Cc1ccc2c(c1)N(CC(=O)N1CCCC1)C(=O)C(C)O2` (stereo not given), the survival was inactive: 100%.

Turning to `CCCCC(=O)Nc1ccc(OCc2cc(=O)n3c(C)csc3n2)cc1`, the survival was inactive: 87%.

On to `O=C(NCc1ccccc1Cl)c1c2c(nc3ccccc13)C(=O)N(C1CCCCC1)C2`, for which the survival is inactive: 79%.

As for `COC(=O)c1oc2ccc(Cl)cc2c1C`, the survival is inactive: 108%.

In the case of `CCN(CC)c1ccc(C2C(C(=O)Nc3ccccc3C)=C(C)Nc3ncnn32)cc1` (stereo not given), the survival was inactive: 124%.

In the case of `COC(=O)CCCCCn1c(-c2ccccc2)cn2c3c(=O)n(C)c(=O)n(C)c3nc12`, the survival was inactive: 160%.

Take `Cc1cc2c(cc1NC(=O)c1ccccc1Cl)n(C)c(=O)c(=O)n2C`: the survival is inactive: 55%.

For `Cc1cccc(CCn2c(=O)c3ccccc3n(CC(=O)Nc3ccccc3F)c2=O)c1`, the survival was inactive: 71%.

With `COc1ccc(OC)c(C(=O)CSc2ncc3c(n2)-c2ccccc2N(Cc2ccccc2C)S3(=O)=O)c1`, the survival was inactive: 47%.

As to `Cc1ccn2c(=O)cc(CSc3nnc(C)s3)nc2c1`, the survival is inactive: 85%.

Consider `CCN(Cc1ccccc1)Cc1c(O)ccc2c(=O)c(-c3ccc(Cl)cc3)c(C(F)(F)F)oc12`, for which the survival was inactive: 90%.

For `Cc1ccc(C)c(N2CCN(CCCNC(=O)c3cnn(-c4ccccc4)c3C3CCN(C(=O)OC(C)(C)C)CC3)CC2)c1`, the survival is inactive: 126%.

For `CS(=O)(=O)N(CC(=O)NCc1ccncc1)c1ccccc1`, the survival was inactive: 108%.

Regarding `COc1ccccc1Nc1c2c(nc3ccc(NC(=O)c4ccccc4F)cc13)CCCC2`, the survival is inactive: 83%.

As to `COCCN=Cc1c(NCCOC)nc2ccccn2c1=O`, the survival is inactive: 90%.

`Cc1cccc(-c2noc(-c3ccccc3OCC(=O)Nc3ccccc3[N+](=O)[O-])n2)c1`: the survival was inactive: 109%.

Consider `Cc1ccn2cc(CNC(=O)c3cccc(C(F)(F)F)c3)nc2c1`, for which the survival is inactive: 86%.

Take `CCN(CC)CCCNC(=O)c1cn(CC(C)C)c(=O)c2c1c1ccccc1n2C`: the survival was inactive: 123%.

`Cc1ccc2nc(-c3ccsc3)c(Nc3ccc(Cl)cc3)n2c1`: the survival is inactive: 105%.

`COc1ccc(-c2nnc(SCC(=O)N3CCc4ccccc43)o2)cc1OC`: the survival is inactive: 87%.

With `COc1ccc(-c2nc3scc(CCNS(=O)(=O)c4ccc(Oc5ccccc5)cc4)n3n2)cc1`, the survival was inactive: 55%.

Consider `CC(=O)c1cccc(NC(=O)[C@H]2O[C@@H]3OC(C)(C)O[C@@H]3[C@H]3OC(C)(C)O[C@H]32)c1`, for which the survival is inactive: 120%.

With `COc1ccc(OCC(=O)N(Cc2sccc2C)C2CCS(=O)(=O)C2)cc1` (stereo not given), the survival is inactive: 87%.

Turning to `CCOC(=O)c1ccc(NC(=O)C(C)Sc2nc(=O)cc(N)n2CCc2ccccc2)cc1` (stereo not given), the survival is inactive: 72%.

On to `Cc1ccc(C)c(N2C(=O)N(Cc3cccc(C(F)(F)F)c3)c3ccccc3S2(=O)=O)c1`, for which the survival was inactive: 63%.

Take `CCn1c2c(c(=O)n3ncc(C(=O)N4CCN(c5ccc(C(C)=O)cc5)CC4)c13)CN(Cc1ccc(OC)cc1)CC2`: the survival was inactive: 131%.

As for `CCN(CC)C(=O)Cn1c(=O)n(Cc2ccc(C(=O)NCCCOC)cc2)c(=O)c2ccccc21`, the survival is inactive: 74%.

As to `O=C(Nc1ccc(F)cc1F)c1cc(S(=O)(=O)N2CCCCC2)c[nH]1`, the survival was inactive: 83%.

For the compound `COc1ccc(C(=O)CCC(=O)Nc2ccc(F)cc2F)cc1`, the survival was inactive: 82%.

For `COc1ccc(F)cc1S(=O)(=O)Nc1ccc2c(c1)CCCN2C(=O)c1cccs1`, the survival was inactive: 45%.

As to `Cc1ccc(C)c(NC(=O)N2CCN3CCCCC3C2)c1` (stereo not given), the survival is inactive: 68%.

On to `COc1ccc(CCN(Cc2nc3ccccc3c(=O)[nH]2)C(=O)C(C)C)cc1`, for which the survival was inactive: 120%.

As for `Cc1cc(NC(=O)c2cc(Cl)ccc2Cl)ccc1-c1cc2ccccc2oc1=O`, the survival was inactive: 138%.

For the compound `CCOC(=O)C1=C(C)N=C2SCCC(=O)N2C1c1ccc(OCc2ccccc2)c(OC)c1` (stereo not given), the survival was inactive: 123%.

Turning to `CCOC(=O)CSc1nc2cc(OC)c(OC)cc2c2nc(-c3ccccc3)nn12`, the survival was inactive: 66%.

On to `CCOc1ccc(N2C(=O)CC(N3CCC(O)(c4ccc(Cl)cc4)CC3)C2=O)cc1` (stereo not given), for which the survival is inactive: 105%.

As for `COc1ccc(Cn2nnnc2CN2CCC(NC(=O)c3cccc(OC)c3)CC2)cc1`, the survival is inactive: 115%.

Consider `COC(=O)c1sccc1S(=O)(=O)N(CC(=O)NCc1ccc(C)cc1)c1ccc(C)c(C)c1`, for which the survival was inactive: 74%.

On to `NS(=O)(=O)c1ccc(NC(=O)COc2ccc(S(=O)(=O)NC3CCCCC3)cc2)cc1`, for which the survival is inactive: 76%.

Take `COc1cccc(N(CC(=O)N2CCC(C(N)=O)CC2)S(C)(=O)=O)c1`: the survival was inactive: 100%.

For the compound `COc1cccc(-n2nnc(-c3nc(-c4cccs4)no3)c2N)c1`, the survival is inactive: 95%.

In the case of `COc1ccc(NS(=O)(=O)c2ccc3[nH]c(=O)ccc3c2)cc1OC`, the survival is inactive: 96%.

In the case of `N#Cc1c(NC(=O)CN2CCCCC2)sc2c1CCC2`, the survival was inactive: 109%.

Turning to `O=C1CS(=O)(=O)C2(C(=O)N(Cc3ccccc3)c3ccccc32)N1c1ccc(F)c(Cl)c1` (stereo not given), the survival was inactive: 92%.

As to `CCOc1ccc(S(=O)(=O)Nc2cccc(OC)c2)c2cccnc12`, the survival was inactive: 112%.

Consider `Cc1ccc(CCNC(=O)CN2C(=O)COc3ccc(S(=O)(=O)N4CCCCCC4)cc32)cc1`, for which the survival is inactive: 91%.

Regarding `O=C(Nc1cccc(Cl)c1)c1cc(-c2ccc3c(c2)OCO3)on1`, the survival was inactive: 90%.

`CN1C(=O)c2ccccc2Sc2ccc(NC(=O)NCc3ccc(Cl)cc3)cc21`: the survival was inactive: 110%.

With `CCOC(=O)c1c(NC(C)=O)sc2c1CCC2`, the survival was inactive: 104%.

Take `COc1ccccc1C(=O)Oc1c(Sc2ccccc2)c(C)nn1-c1ccccc1`: the survival was inactive: 57%.

With `COc1cc(OC)cc(C(=O)Nc2ccc3nc4n(c(=O)c3c2)CCCCC4)c1`, the survival is inactive: 79%.

With `COCCc1nn2c(=O)cc(COC(=O)c3ccccc3C)nc2s1`, the survival is active: -6%.

On to `Cc1ccc(C)c(N2CCN(C(=O)c3ccc4c(=O)n(CCc5ccccc5)c(=O)[nH]c4c3)CC2)c1`, for which the survival was inactive: 67%.

For the compound `O=C(Nc1cc(-c2ccc(Cl)cc2)no1)c1ccc(F)cc1`, the survival is inactive: 97%.

Regarding `CCCSCCCNC(=O)CN1C(=O)COc2ccc(S(=O)(=O)N3CCCC3)cc21`, the survival is inactive: 73%.

Regarding `C=CCNc1nc(Cl)nc(Cl)n1`, the survival was inactive: 101%.

Consider `Cc1ccc2nc(C)cc(C(=O)O)c2c1`, for which the survival was inactive: 104%.

For the compound `CCCCn1c(=O)c2oc3ccccc3c2n(Cc2ccccc2C)c1=O`, the survival is inactive: 81%.

As for `CCOC(=O)c1[nH]c2c(c1Cc1ccccc1OC)C(=O)CC(c1ccccc1)C2` (stereo not given), the survival was inactive: 126%.
